Reference: PubChem BioAssay AID1461 (National Center for Advancing Translational Sciences (NCATS), 2008)
Screen size: about 220,000 compounds; about 2,300 (1%) were called active. The inconclusive results got no clear call from the source; some entries with a clear call stand among them for comparison. Calls follow the shape of the dose curve; as a rule, active = well fitted inhibition curve with a large enough effect; inconclusive = small, poorly fitted or top-dose-only effect, or effect the other way; inactive = no such curve, though single readings can be large or run the other way. Potencies of inconclusive entries are left out as doubtful fits.

Each compound was assayed against Neuropeptide S receptor (Homo sapiens) (UniProt Q6W5P4) (assay: qHTS Assay for Antagonists of the Neuropeptide S Receptor: cAMP Signal Transduction). Conditions: CHO-NPSR cells, cAMP TR-FRET, antagonist mode; activity change, negative = inhibition: at 38.3 µM (top of the series) unless noted.
% is scaled to controls: 0 for no effect and ±100 for the full control effect; potency is read from the fitted curve at half-maximal effect; tags tell the direction and shape of the fitted curve.
Also: nearly all actives have a fitted effect of over 50% in size.

Sequence of UniProt Q6W5P4 (Q6W5P4 whole entry, looked up): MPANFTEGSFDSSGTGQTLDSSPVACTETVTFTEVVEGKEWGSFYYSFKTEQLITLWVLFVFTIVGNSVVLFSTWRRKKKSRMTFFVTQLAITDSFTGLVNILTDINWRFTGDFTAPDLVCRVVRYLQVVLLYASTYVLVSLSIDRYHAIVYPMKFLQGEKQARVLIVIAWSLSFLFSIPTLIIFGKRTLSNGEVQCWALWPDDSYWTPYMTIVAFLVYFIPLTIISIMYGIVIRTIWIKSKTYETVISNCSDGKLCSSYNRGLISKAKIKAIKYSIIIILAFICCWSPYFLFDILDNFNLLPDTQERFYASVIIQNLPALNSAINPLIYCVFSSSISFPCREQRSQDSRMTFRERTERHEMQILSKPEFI

| SMILES | Potency | activity change, negative = inhibition |
| --- | --- | --- |
| Cc1cccc(NC(=O)c2cc(NC(=O)c3ccco3)ccc2Cl)n1 | inconclusive [activator, partial curve] | – |
| O=c1[nH]c(CSc2ncnc3sc(-c4ccccc4)cc23)nc2ccccc12 | inconclusive [activator, full curve, poor fit] | – |
| CSc1cccc(NC(=S)N(CCCN2CCCC2)Cc2cccn2Cc2ccc(Cl)cc2)c1 | active: 5.01 µM | – |
| COc1ccc2c(c1)c1ccc3c(c1n2C)C(=O)C=CC3=O | inconclusive [activator, partial curve] | – |
| CCOC(=O)C1=C(CSc2nc(C)cc(C)c2C#N)OC(N)=C(C#N)C1c1ccccc1 (centres undefined) | inconclusive [inhibitor, single point] | – |
| CCOc1ccc(NCC(=O)Nc2ccc(C)cc2C)cc1 | – | inactive: -6.21% [at 46.1 µM] |
| C#CCn1c(S(=O)(=O)Cc2ccccc2Cl)nc(-c2ccccc2)c1-c1ccccc1 | active: 10 µM | – |
| Cc1cccc(Cn2cc(/C=C/[N+](=O)[O-])c3ccccc32)c1 | inconclusive [inhibitor, single point] | – |
| CCCCN=C1CC(C)(C)CC(=O)/C1=C(/O)CCC | inconclusive [inhibitor, single point] | – |
| Cc1ccc(/C=N/N2C(=S)SC(C)(C)C2N(O)C(=O)Nc2ccc([N+](=O)[O-])cc2)cc1 (centres undefined) | inconclusive [inhibitor, single point] | – |
| O=C(NCc1ccc(Cl)cc1)c1cnccn1 | inconclusive [inhibitor, single point] | – |
| Cc1ccc(-n2c(SCn3nnc4ccccc4c3=O)nnc2-c2cccnc2)c(C)c1 | inconclusive [inhibitor, single point] | – |
| Cc1ccc(NC(=O)Cn2c(O)c(N=NC(=O)c3cc4ccccc4cc3O)c3ccccc32)cc1 | inconclusive [inhibitor, single point] | – |
| CSc1nnc(-c2ccccc2)c(-c2ccccc2)n1 | inconclusive [activator, single point] | – |
| COCCCNC1=C(Cl)C(=O)c2ccccc2C1=O | inconclusive [inhibitor, single point] | – |
| CC(C)c1nnc(NC(=O)CCC(=O)NCC2CCCO2)s1 (centres undefined) | inconclusive [inhibitor, single point] | – |
| CC1(C)Cc2c(ccc3ccccc23)/C(=C/C(=O)N2CCCCC2)N1 | inconclusive [inhibitor, single point] | – |
| COc1ccc(Cl)cc1C(=O)N(Cc1nc(-c2cccc(C)c2)no1)C(C)C | inconclusive [inhibitor, single point] | – |
| O=C1C(=O)c2ccccc2C(O)=C1CCCCl | inconclusive [activator, single point] | – |
| O=C1NC(=S)S/C1=C\C=C\c1ccc([N+](=O)[O-])o1 | active: 7.94 µM | – |
| CCCN(CCC)CCCNC(=O)c1cn(CCOC)c(=O)c2c1c1ccccc1n2C | inconclusive [inhibitor, partial curve] | – |
| Clc1ccc(NC2(c3nnnn3C3CCCCC3)CCCCC2)cc1 | inconclusive [inhibitor, partial curve] | – |
| OC(COCC(F)(F)C(F)(F)C(F)(F)C(F)F)Cn1c2ccc(Cl)cc2c2cc(Cl)ccc21 (centres undefined) | inconclusive [inhibitor, single point] | – |

| SMILES | Potency | activity change, negative = inhibition |
| --- | --- | --- |
| CC1=Nn2c(nnc2-c2ccco2)SC1 | inconclusive [inhibitor, partial curve] | – |
| CC(C)(C)S(=O)(=O)c1ccc2nc3c(n2c1)CCCC3 | – | inactive: -1.74% [at 46.1 µM] |
| NC(=O)c1nc(-c2cccs2)nc2c1[nH]c(=O)n2-c1ccc(F)cc1 | inconclusive [inhibitor, single point] | – |
| N#Cc1c(-c2ccccc2)cc(-c2ccco2)c(C#N)c1N | – | inactive: -9.63% [at 46.1 µM] |
| CCCC(=O)Nc1nnc(-c2ccco2)s1 | – | inactive: -10.9% [at 46.1 µM] |
| C=CCOC(=O)CN1C(=O)c2ccccc2C1=O | inconclusive [inhibitor, partial curve, poor fit] | – |
| CN1CCN(Cc2c(O)ccc3cc(-c4ccccn4)c(=O)oc23)CC1 | – | inactive: 19.6% |
| Cc1ccc(C#N)c(SCc2cc3c(cc2Cl)OCO3)n1 | inconclusive [inhibitor, single point] | – |
| C/C(=N\NC(=O)CSc1nc2ccccc2o1)c1ccc(O)cc1 | – | inactive: -4.72% |
| Cc1ccc2oc(=O)c3cnn(CC(=O)N4CCCc5ccccc54)c3c2c1 | inconclusive [activator, partial curve, poor fit] | – |
| O=C(CN1CCN(Cc2ccccc2)CC1)N/N=C/c1ccc(Br)s1 | – | inactive: 9.68% |
| Cc1[nH]nc(-c2ccc(OCc3cnn(-c4ccccc4)c3)cc2O)c1Oc1ccc(Cl)cc1 | active: 10 µM | – |
| O=C(N/N=C\c1ccco1)Nc1cccc(Cl)c1 | – | inactive: -21% |
| CC(=O)c1c(N2CCN(C)CC2)nc(=S)n(Cc2ccccc2)c1C | – | inactive: 8.76% |
| O=c1c2c3nc4ccccc4nc3n(/N=C/c3cccs3)c2ncn1-c1ccccc1 | inconclusive [inhibitor, single point] | – |
| O=c1oc2ccccc2n1CSc1nc2ccccc2s1 | inconclusive [inhibitor, single point] | – |
| O=C(OCc1nnc(-c2ccccc2)o1)c1cn(-c2ccccc2)nc1-c1ccccc1 | inconclusive [inhibitor, single point] | – |
| CCc1ccc(NS(=O)(=O)c2ccc3[nH]cc(C(=O)N4CCc5ccccc54)c(=O)c3c2)cc1 | – | inactive: 6.58% |
| CCOC(=O)c1c(-c2ccccc2)csc1NC(=O)C1CCCO1 (centres undefined) | inconclusive [inhibitor, single point] | – |
| COc1ccccc1NC(=O)c1nnn(Cc2ccccc2)c1NC(C)=O | inconclusive [inhibitor, single point] | – |
| N=C(N)c1ccc(/C=C/c2ccc(C(=N)N)cc2O)cc1 | inconclusive [activator, partial curve] | – |
| CC(=O)NS(=O)(=O)c1ccc(NC(=O)c2cc(-c3ccc(C)c(C)c3)nc3ccccc23)cc1 | inconclusive [inhibitor, single point] | – |
| COc1ccc2oc(=O)c(-c3nnc(NCc4ccco4)s3)cc2c1 | – | inactive: 2.14% [at 46.1 µM] |

| SMILES | Potency | activity change, negative = inhibition |
| --- | --- | --- |
| COc1ccc(-c2noc(-c3cccc(Cl)c3)n2)cc1OC | – | inactive: 0.401% |
| O=C(C1=C[C@@H](c2csc3ccccc23)C[C@@H](OCCCCO)O1)N1CCN(Cc2ccc3c(c2)OCO3)CC1 | inconclusive [activator, partial curve] | – |
| Cc1cccc(NC(=O)c2nc[nH]c2C(=O)N[C@@H](CC(C)C)C(=O)OC(C)(C)C)c1 | inconclusive [inhibitor, single point] | – |
| COc1ccc(NC(=O)COc2nsnc2N2CCCCC2)cc1 | inconclusive [inhibitor, full curve, poor fit] | – |
| CCOC(=O)Nc1ccc(C(=O)/C=C/c2ccccc2)cc1 | inconclusive [activator, single point] | – |
| Cc1nn(-c2ccccc2)c2c1C1(C(=O)Nc3ccccc31)N1C(=N2)Sc2ccccc21 (centres undefined) | inconclusive [inhibitor, single point] | – |
| COc1ccc(-c2csc(Nc3cccnc3)n2)cc1 | inconclusive [inhibitor, single point] | – |
| O=C(/C=C/c1ccco1)N(Cc1ccc(F)cc1)C1CCS(=O)(=O)C1 (centres undefined) | inconclusive [inhibitor, single point] | – |
| COc1ccc(Br)cc1[C@H]1[C@@H]2C=CCC[C@@]2(C)C(=O)N1Cc1ccccc1 | inconclusive [inhibitor, single point] | – |
| CCOc1ccc(OCCSc2nc3ccccc3c(=O)[nH]2)cc1 | inconclusive [activator, single point] | – |
| Fc1ccc(NC(=S)Nc2ccccc2Cl)cc1 | – | inactive: 9.74% |
| Cc1c(CCOC(=O)CC23CC4CC(CC(C4)C2)C3)sc[n+]1CC(=O)c1ccccc1 | inconclusive [activator, single point] | – |
| Cc1cc(C(=O)O)ccc1-n1c(C)cc(/C=C(/C#N)C(=O)Nc2ccccc2)c1C | inconclusive [activator, partial curve] | – |
| Cc1cc(C=C2C(=O)c3ccccc3C2=O)c(C)n1C | – | inactive: -1.99% |
| Cc1cc(C)n(-c2ccc(C(=O)N3CC(C)OC(C)C3)cc2)n1 (centres undefined) | inconclusive [inhibitor, single point] | – |
| Cn1cc(S(=O)(=O)N2CCN(C(=O)c3ccco3)CC2)c(=O)n(C)c1=O | – | inactive: 1.34% [at 46.1 µM] |
| CC(C)C(=O)N(c1cc2sc(=O)oc2c2ccccc12)S(=O)(=O)c1cccs1 | inconclusive [inhibitor, single point] | – |
| CC(C)C(NS(=O)(=O)c1ccc2c3c(cccc13)C(=O)N2)C(=O)O (centres undefined) | inconclusive [inhibitor, single point] | – |
| O=S(=O)(c1ccc(NC(=S)NN=C(Cc2ccccc2)Cc2ccccc2)cc1)N1CCOCC1 | – | inactive: -0.882% |
| CCN(CC)S(=O)(=O)c1ccc(C(=O)NCc2ccc3c(c2)cc(C)n3C)cc1 | inconclusive [activator, single point] | – |
| CCOCCCNC1=C(Cl)C(=O)c2ccccc2C1=O | inconclusive [inhibitor, single point] | – |
| NC(=O)c1ccsc1NC(=O)CCS(=O)(=O)c1ccccc1 | – | inactive: 16.5% |
| O=C(CNCc1cccs1)Nc1ccc(N2CCCCCC2)cc1 | inconclusive [inhibitor, single point] | – |
